Measured values reported in paper PMC6525116.
Results are given in words; binding and its absence hold for the method and conditions named. For some of these results: In cells and extracts the contact can be indirect. Some results given as binding are weak or reduced against the parent protein; the word gives no strength.

Sequences of proteins named here, by UniProt entry; tags and fusion partners are left off. Residues count along the entry.
GluN2A 838–1464 (C-terminal tail) (Q00959, residues 838-1464): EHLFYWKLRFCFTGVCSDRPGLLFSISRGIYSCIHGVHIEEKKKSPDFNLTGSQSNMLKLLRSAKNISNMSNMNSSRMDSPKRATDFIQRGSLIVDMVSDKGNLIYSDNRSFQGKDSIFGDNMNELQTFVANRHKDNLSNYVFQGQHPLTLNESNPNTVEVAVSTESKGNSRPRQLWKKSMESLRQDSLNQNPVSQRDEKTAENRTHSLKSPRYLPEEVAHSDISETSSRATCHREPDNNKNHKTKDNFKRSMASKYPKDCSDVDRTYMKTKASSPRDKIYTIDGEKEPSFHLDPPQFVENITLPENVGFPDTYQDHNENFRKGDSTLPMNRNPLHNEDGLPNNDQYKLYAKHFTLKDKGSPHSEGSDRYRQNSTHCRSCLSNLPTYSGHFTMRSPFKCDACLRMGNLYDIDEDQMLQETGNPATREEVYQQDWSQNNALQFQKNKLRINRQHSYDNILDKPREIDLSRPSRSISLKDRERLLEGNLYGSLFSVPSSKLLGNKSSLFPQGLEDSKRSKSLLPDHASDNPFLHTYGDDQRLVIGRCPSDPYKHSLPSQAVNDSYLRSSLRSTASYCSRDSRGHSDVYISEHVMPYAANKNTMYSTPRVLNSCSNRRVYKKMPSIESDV
GluN2A 838–1382 (Q00959, residues 838-1382): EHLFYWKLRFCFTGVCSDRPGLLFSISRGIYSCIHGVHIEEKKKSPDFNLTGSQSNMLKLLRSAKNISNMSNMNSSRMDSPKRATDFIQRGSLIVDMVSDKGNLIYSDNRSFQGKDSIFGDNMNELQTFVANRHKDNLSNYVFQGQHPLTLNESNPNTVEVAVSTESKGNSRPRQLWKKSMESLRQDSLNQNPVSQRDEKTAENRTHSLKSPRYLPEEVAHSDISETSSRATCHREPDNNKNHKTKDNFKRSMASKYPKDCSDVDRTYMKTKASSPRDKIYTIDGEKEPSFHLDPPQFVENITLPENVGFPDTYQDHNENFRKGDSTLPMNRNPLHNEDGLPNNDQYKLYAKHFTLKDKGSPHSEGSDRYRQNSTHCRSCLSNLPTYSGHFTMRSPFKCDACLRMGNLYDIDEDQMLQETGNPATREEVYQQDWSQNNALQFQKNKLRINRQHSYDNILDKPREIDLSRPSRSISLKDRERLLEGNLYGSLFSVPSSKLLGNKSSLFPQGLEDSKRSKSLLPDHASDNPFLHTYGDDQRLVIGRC
GluN2A 838–1157 (Q00959, residues 838-1157): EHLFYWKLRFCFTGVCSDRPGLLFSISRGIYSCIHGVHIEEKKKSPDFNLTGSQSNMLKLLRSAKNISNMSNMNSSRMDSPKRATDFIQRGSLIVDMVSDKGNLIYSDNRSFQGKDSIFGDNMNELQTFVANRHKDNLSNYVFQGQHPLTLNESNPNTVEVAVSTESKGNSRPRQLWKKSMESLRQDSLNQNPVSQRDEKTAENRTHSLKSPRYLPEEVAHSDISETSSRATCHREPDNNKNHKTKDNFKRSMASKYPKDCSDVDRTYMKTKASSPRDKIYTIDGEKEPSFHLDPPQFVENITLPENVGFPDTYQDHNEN
GluN2D 864–1323 (intracellular C-terminal domain) (Q62645, residues 864-1323): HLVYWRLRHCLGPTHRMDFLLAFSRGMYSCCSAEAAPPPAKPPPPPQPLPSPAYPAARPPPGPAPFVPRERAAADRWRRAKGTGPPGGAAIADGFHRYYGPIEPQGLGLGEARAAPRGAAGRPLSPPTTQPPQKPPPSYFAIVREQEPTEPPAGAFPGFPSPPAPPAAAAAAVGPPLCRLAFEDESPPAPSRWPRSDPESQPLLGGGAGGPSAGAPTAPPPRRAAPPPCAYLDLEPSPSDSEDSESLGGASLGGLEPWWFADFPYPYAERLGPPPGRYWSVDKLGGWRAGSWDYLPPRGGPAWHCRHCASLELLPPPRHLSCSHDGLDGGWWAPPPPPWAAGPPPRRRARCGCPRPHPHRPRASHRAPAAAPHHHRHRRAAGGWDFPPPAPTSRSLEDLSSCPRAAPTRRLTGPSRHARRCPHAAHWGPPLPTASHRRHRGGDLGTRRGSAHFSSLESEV
GluN2D 864–1318 (C-terminal domain lacking the ESEV PSD-95 MAGUK binding domain) (Q62645, residues 864-1318): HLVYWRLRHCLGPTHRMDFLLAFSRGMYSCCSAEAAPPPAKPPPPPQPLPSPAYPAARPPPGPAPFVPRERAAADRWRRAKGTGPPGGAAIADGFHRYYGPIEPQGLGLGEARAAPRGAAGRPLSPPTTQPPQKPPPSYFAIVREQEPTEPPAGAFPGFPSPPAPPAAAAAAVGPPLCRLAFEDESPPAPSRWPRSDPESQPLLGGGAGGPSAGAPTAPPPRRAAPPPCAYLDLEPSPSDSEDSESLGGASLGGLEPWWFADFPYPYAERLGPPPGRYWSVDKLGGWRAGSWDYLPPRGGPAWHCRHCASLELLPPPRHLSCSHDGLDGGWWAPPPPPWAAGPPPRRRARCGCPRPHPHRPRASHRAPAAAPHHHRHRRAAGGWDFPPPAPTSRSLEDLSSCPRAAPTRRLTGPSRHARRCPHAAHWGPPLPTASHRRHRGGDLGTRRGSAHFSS

Tests used:
[1] = target: GluN1-1a 834–938 (cytoplasmic C-terminal domain) (UniProt P35439); test: two-hybrid; yeast mating assays: pGBKT7 bait constructs against pGADT7 fish constructs; diploid colonies on -Leu/-Trp/-His/-Ade agar counted after 7 days at 30 °C
GluN2A 838–1157 = GluN2A 838–1157 (UniProt Q00959); test: as above
GluN2A 838–1382 = GluN2A 838–1382 (UniProt Q00959); test: as above
[2] = target: GluN2A 838–1464 (C-terminal tail) (UniProt Q00959); test: as above
[3] = target: GluN2D 864–1318 (C-terminal domain lacking the ESEV PSD-95 MAGUK binding domain) (UniProt Q62645); test: as above
[4] = target: GluN2D 864–1323 (intracellular C-terminal domain) (UniProt Q62645); test: as above
[5] = target: GluN2D 864–1323 (intracellular C-terminal domain) (UniProt Q62645); test: two-hybrid; screen of a mouse brain cDNA library with the bait pGBKT7GluN2D 864–1323 in AH109 S. cerevisiae; -Leu/-Trp/-His/-Ade plates, 5–7 days at 30 °C, restreaked three times
[6] = target: GluN2A, endogenous in adult rat brain (rat (endogenous in adult rat brain)) (UniProt Q00959); test: co-IP; adult rat brain (minus cerebellum) P2 membrane fraction, 1% sodium deoxycholate 100,000×g extract; precipitated with anti-GluN1 C2 or non-immune rabbit Ig for 16 h at 4 °C; immunoblots
[7] = target: GluN2A NMDA receptor subunit expressed in HEK 293 cells (UniProt Q00959); test: co-IP; HEK 293 cells co-transfected with GluN1/GluN2A/CtBP1^FLAG; 1% Triton X-100 extract (50 mM Tris-citrate pH 7.4, 240 mM NaCl, 5 mM EDTA, 5 mM EGTA); precipitated with anti-GluN1 C2 antibodies or non-immune Ig and protein A Sepharose at 4 °C; immunoblots with anti-GluN1 C2, anti-GluN2A (1381–1394) and anti-FLAG

binding [1] | binding (GluN2A 838–1157) | binding (GluN2A 838–1382) | binding [2] | binding [3] | binding [4] | binding [5] | binding [6] | binding [7] | Substance
no binding | no binding | binds | binds | binds | binds | binds | – | – | CtBP1 1–224 (clone 47) (from UniProt O88712 1-224) (domain or fragment)
no binding | no binding | binds | binds | binds | binds | binds | – | – | CtBP1 161–306 (clone 37) (from UniProt O88712 161-306) (domain or fragment)
– | – | – | – | – | – | – | binds | – | CtBP1, endogenous in adult rat brain (from UniProt Q9Z2F5 1-430)
– | – | – | – | – | – | – | – | binds | FLAG-tagged full length CtBP1-I1 (from UniProt O88712 1-441)
